# Results as given in the supplement of paper PMC8728848.
# Some of the results follow.
# B1: LKPARMA (Neurospora crassa) (protein)
# chain: MSFHVTAEDARRIEVRDNRTILFARLRREDGEWNDASYELDQIIGNNDGHFQWGGGQNFTETAEDIRFHPKEGAAEQPILRARLRDCNGEFHDRDVNLTEIVENVNGEFQAKF
# What was measured:
# Assay in all cases: glycan array binding signal (z-score within array); higher = stronger binding
# Settings in all cases: glycan notation: IUPAC condensed, linker removed
# [1] = target: Neu5Ac(a2-8)Neu5Ac(a2-3)[GalNAc(b1-4)]Gal(b1-4)Glc
# Procedure, shortened: (§1)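 Glycan array data came from 3228 arrays in the Consortium for Functional Glycomics database, and only arrays with an available protein sequence were kept. Glycan names were put into IUPAC-condensed notation, and columns mapping to the same glycan were averaged. The binding signal is a within-array Z-score, averaged across arrays of one protein sequence run at different concentrations or buffers and across linkers. A negative Z-score can be read as non-binding.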
# [2] = target: Neu5Ac(a2-8)Neu5Ac(a2-8)Neu5Ac
# Procedure, shortened: as §1
# [3] = target: Neu5Ac(a2-8)Neu5Ac(a2-8)Neu5Ac(a2-3)Gal(b1-4)Glc
# Procedure, shortened: as §1
# [4] = target: Neu5Ac(a2-8)Neu5Ac(a2-8)Neu5Ac(a2-3)[GalNAc(b1-4)]Gal(b1-4)Glc
# Procedure, shortened: as §1
# [5] = target: Neu5Ac(a2-8)Neu5Ac(a2-8)Neu5Ac(a2-8)Neu5Ac(a2-3)[GalNAc(b1-4)]Gal(b1-4)Glc
# Procedure, shortened: as §1
# Neu5Ac(b1-6)GalNAc = target: Neu5Ac(b1-6)GalNAc
# Procedure, shortened: as §1
# [6] = target: Neu5Ac(b2-6)Gal(b1-4)GlcNAc
# Procedure, shortened: as §1
# [7] = target: Neu5Ac9Ac(a2-6)Gal(b1-4)GlcNAc
# Procedure, shortened: as §1
# [8] = target: Neu5Gc(a2-3)Gal(b1-3)GlcNAc
# Procedure, shortened: as §1
# [9] = target: Neu5Gc(a2-3)Gal(b1-3)[Fuc(a1-4)]GlcNAc
# Procedure, shortened: as §1
# Neu5Gc(a2-3)Gal(b1-4)Glc = target: Neu5Gc(a2-3)Gal(b1-4)Glc
# Procedure, shortened: as §1
# [10] = target: Neu5Gc(a2-3)Gal(b1-4)GlcNAc
# Procedure, shortened: as §1
# [11] = target: Neu5Gc(a2-3)Gal(b1-4)[Fuc(a1-3)]GlcNAc
# Procedure, shortened: as §1
# [12] = target: Neu5Gc(a2-6)Gal(b1-4)GlcNAc
# Procedure, shortened: as §1
# Neu5Gc(a2-6)GalNAc = target: Neu5Gc(a2-6)GalNAc
# Procedure, shortened: as §1
binder,measurement,setting,value
B1,glycan array binding signal (z-score),[1],-0.248
same,glycan array binding signal (z-score),[2],-0.242
same,glycan array binding signal (z-score),[3],-0.249
same,glycan array binding signal (z-score),[4],-0.242
same,glycan array binding signal (z-score),[5],-0.248
same,glycan array binding signal (z-score),Neu5Ac(b1-6)GalNAc,-0.247
same,glycan array binding signal (z-score),[6],-0.24
same,glycan array binding signal (z-score),[7],-0.251
same,glycan array binding signal (z-score),[8],-0.249
same,glycan array binding signal (z-score),[9],-0.251
same,glycan array binding signal (z-score),Neu5Gc(a2-3)Gal(b1-4)Glc,-0.247
same,glycan array binding signal (z-score),[10],-0.25
same,glycan array binding signal (z-score),[11],-0.244
same,glycan array binding signal (z-score),[12],-0.252
same,glycan array binding signal (z-score),Neu5Gc(a2-6)GalNAc,-0.034
